Measurements: article PMC7819943, “Rice protein-binding microarrays: a tool to detect cis-acting elements near promoter regions in rice”
Some of the results follow.

biological target: T1, OsWOX13 (Oryza sativa, UniProt Q5QMM3 1-267); experiment: protein-binding microarray (RPBM); PBS, 2% BSA, 51.3 ng/ul salmon testes DNA, 50 uM zinc acetate, 200 nM TF, 25 C, 1 h; high values mean tight binding; settings: protein: recombinant; tags: N-terminal polyhistidine and DsRed monomer fusion (pET32a); label: CyDye5-dUTP incorporated in the synthesized complementary strand; 3' TTTTT single-stranded linker to array surface; dsDNA, one strand shown
T1 sequence: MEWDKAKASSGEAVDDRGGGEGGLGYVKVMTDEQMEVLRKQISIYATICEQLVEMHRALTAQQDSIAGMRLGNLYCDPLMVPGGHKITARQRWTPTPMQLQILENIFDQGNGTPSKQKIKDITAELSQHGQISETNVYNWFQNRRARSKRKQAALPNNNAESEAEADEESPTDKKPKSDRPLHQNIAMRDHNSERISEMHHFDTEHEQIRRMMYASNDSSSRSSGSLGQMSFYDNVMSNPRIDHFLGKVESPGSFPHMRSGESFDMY
Outline: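 In PBS with 2% BSA, salmon testes DNA and 50 µM zinc acetate, 200 nM protein was incubated on a custom Agilent array at 25 °C for 1 h and then washed off. The array had been made double-stranded by primer extension with Cy5-dUTP and blocked with 2% BSA. The proteins were transcription factors fused N-terminally to polyhistidine and DsRed, expressed in E. coli BL21-CodonPlus and purified on Ni–NTA. The binding signal is per-feature fluorescence intensity (arbitrary units) from an Axon 4000B scanner.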

Sequence	binding signal
GAATCAATTGAAATTTGAATTAAGACGGGGTTTTATGAAACGGAGTCACCTAGTGCAG	8460 fluorescence intensity (a.u.)
AGCTGTTTAATTATTTACTCAGACTCACGGTCACAGTCACCGGAGTCACCTAGTGCAG	12500 fluorescence intensity (a.u.)
CATTAATTTGTTGCACTTTAGACCACTTCAAACCACTTTCCGGAGTCACCTAGTGCAG	21900 fluorescence intensity (a.u.)
TAGATTATTATTATTATTATTGCAATGTCACAACTGAAGACGGAGTCACCTAGTGCAG	5320 fluorescence intensity (a.u.)
GCACGAAACATAGTAATTAATTAGCTATAAGTAGTAGAAGCGGAGTCACCTAGTGCAG	10700 fluorescence intensity (a.u.)
ATAGGTGGTTGATTTATTTTGCGTAGGAGAGAGTACGTTGCGGAGTCACCTAGTGCAG	3800 fluorescence intensity (a.u.)
ACTGAATTAACGTGTAACCGCACCAACCCTGGAGGACTACCGGAGTCACCTAGTGCAG	3580 fluorescence intensity (a.u.)
CACTGTAATTAATTATTTGTTTAGCCTATATTCAATACTTCGGAGTCACCTAGTGCAG	46700 fluorescence intensity (a.u.)
GATAATTAAACTAATCTCCAGATTATTTCTCATCCAAGCCCGGAGTCACCTAGTGCAG	34700 fluorescence intensity (a.u.)
GCAACATTTAAAACACTAAATTAGTTTTATTGGTATAGTACGGAGTCACCTAGTGCAG	3620 fluorescence intensity (a.u.)
TATTTAATATCAAATTTAATGAAATTATTTAATTTGGTATCGGAGTCACCTAGTGCAG	13200 fluorescence intensity (a.u.)
CTTATTAACATTTAATTTGGTTTCTTCCTTAATTTGTATCCGGAGTCACCTAGTGCAG	12600 fluorescence intensity (a.u.)
ATGTTGACAGACAAAATGACATAACATCCAGAATAAAGAACGGAGTCACCTAGTGCAG	11300 fluorescence intensity (a.u.)
CACACCAAATTAAATACTCTATCTGTTAGTGAGATCCCAACGGAGTCACCTAGTGCAG	3880 fluorescence intensity (a.u.)
ACTAGGGTCCTATTTAATTTGTAATCAAAACATTCGAATTCGGAGTCACCTAGTGCAG	3570 fluorescence intensity (a.u.)
TTCCTGATTTTGTGGTTCTAGACCACCTCTGGCTTGCAGCCGGAGTCACCTAGTGCAG	3470 fluorescence intensity (a.u.)
TTTGTGATGATTTATTAATACCTGAAACTCAATTAGGTTCCGGAGTCACCTAGTGCAG	27200 fluorescence intensity (a.u.)
GTATCTGGCCCATCAATCCATCACGCTCTTACGGCCCAGACGGAGTCACCTAGTGCAG	5350 fluorescence intensity (a.u.)
TGTTATTTCAGTTATTGATTTCGATTACTCTAGGCCGCAACGGAGTCACCTAGTGCAG	9300 fluorescence intensity (a.u.)
AATACTAATTATGCATGGTAGTGCAATGTTTGTACTCCACCGGAGTCACCTAGTGCAG	16900 fluorescence intensity (a.u.)
AATAAATGGAGTAAACTTTAGAAATGAATCTGAATACACGCGGAGTCACCTAGTGCAG	4550 fluorescence intensity (a.u.)

Sequence	binding signal
TTTCGTAATCACAATCTTATATGATATTGTCTCCATCCTACGGAGTCACCTAGTGCAG	9400 fluorescence intensity (a.u.)
CCATTGACAGGTGGGCCCACCCCATCTTTAGCAGTTAATTCGGAGTCACCTAGTGCAG	3940 fluorescence intensity (a.u.)
AAGTCATGGATGATTGACACGAGAAAATCATCTAATGTCGCGGAGTCACCTAGTGCAG	43800 fluorescence intensity (a.u.)
ATAAATGATTAAAATTACCTTTACCCGTTGCAACGCACGGCGGAGTCACCTAGTGCAG	42400 fluorescence intensity (a.u.)
GTTATTGATTTCTATATAATACATTGGAGTTTCAAAACTACGGAGTCACCTAGTGCAG	12400 fluorescence intensity (a.u.)
TATGATATATTATAATACTATACAGATTTGTGGGGTTAGACGGAGTCACCTAGTGCAG	4130 fluorescence intensity (a.u.)
ATATTTATTTAAATTAGACTAAATTTTGTTCAAAATTTTGCGGAGTCACCTAGTGCAG	13200 fluorescence intensity (a.u.)
ACAGTGTAATTACACTATGATTGTACTGTAATTACATTTGCGGAGTCACCTAGTGCAG	44000 fluorescence intensity (a.u.)
TTTTGATGGAAATTTTAATAGTCAACTCATGGTCAACTAACGGAGTCACCTAGTGCAG	15000 fluorescence intensity (a.u.)
AGCAGCTAACATTAATTAACCGGCCGGAATATATATATTGCGGAGTCACCTAGTGCAG	4840 fluorescence intensity (a.u.)
AACTCCATCACATCCTTAATTTGCAGCAGCAGGTAATTGTCGGAGTCACCTAGTGCAG	13400 fluorescence intensity (a.u.)
ATTTTAGTTTAATTCAATTAAATTGTGTTAAAATTTCATACGGAGTCACCTAGTGCAG	5620 fluorescence intensity (a.u.)
TTACAAACGAGAGTTTAATTGGTATTTTAGTCTTCTGCACCGGAGTCACCTAGTGCAG	9020 fluorescence intensity (a.u.)
AAATTAATTAAGCAGCTTCTTCCATTCAGACATAGGTCGACGGAGTCACCTAGTGCAG	16200 fluorescence intensity (a.u.)
TTGGTGTTAAATTTATAGTTATGTTATACACTGTCTTGAACGGAGTCACCTAGTGCAG	4760 fluorescence intensity (a.u.)
TTAATTACACAGTTTGCATATAAATTACGAGACGAATATTCGGAGTCACCTAGTGCAG	8430 fluorescence intensity (a.u.)
CATTGTTGATTGAAAATTTACCAGGAGATAACAAAACATTCGGAGTCACCTAGTGCAG	29900 fluorescence intensity (a.u.)
ACGTCTATCCACCAATTAATTAATAAATATACTCCAATATCGGAGTCACCTAGTGCAG	17300 fluorescence intensity (a.u.)
CCAATTTCAATCAAATTTTCAATTTTAACGCGAACTAGACCGGAGTCACCTAGTGCAG	19700 fluorescence intensity (a.u.)
AAAACTCAATTAATCACATATTATTACCACATCGTTTTGCCGGAGTCACCTAGTGCAG	18000 fluorescence intensity (a.u.)
ATTAATTATTTATTTCTTATATTACAGATTTTCAGTATATCGGAGTCACCTAGTGCAG	18600 fluorescence intensity (a.u.)

Sequence	binding signal
AGTTAATTAATTTTGTATGCATTGACTTGCTTATATATATCGGAGTCACCTAGTGCAG	29900 fluorescence intensity (a.u.)
TCTGATTTATCACATATTTTCACACGTGCGAAGCATGCCGCGGAGTCACCTAGTGCAG	22600 fluorescence intensity (a.u.)
TTGAAAATTGGCTATTCCTTTATATGCCATTGATCCAAATCGGAGTCACCTAGTGCAG	4790 fluorescence intensity (a.u.)
TTAATTAGGCTCAAAAGATTTGTCTCGTGGTTTCTAGACGCGGAGTCACCTAGTGCAG	4610 fluorescence intensity (a.u.)
AAATTAGACGGATAATTAAAGTTAGGCACAGAAACTCGTACGGAGTCACCTAGTGCAG	18100 fluorescence intensity (a.u.)
ATAAATTTAAGTGCATTTTGGTTGACGTACTGACGTGTTTCGGAGTCACCTAGTGCAG	7190 fluorescence intensity (a.u.)
CGCGGGAATGATCGCTAATAAATCAGCATAATTTGCTAGTCGGAGTCACCTAGTGCAG	6190 fluorescence intensity (a.u.)
AGAAATTATGTATAACTGTAAGGTCTGGTTAGTGTTACAACGGAGTCACCTAGTGCAG	6200 fluorescence intensity (a.u.)
ACAACCACAAAATTGACACTACGCGACAGTGATGAAACTGCGGAGTCACCTAGTGCAG	6600 fluorescence intensity (a.u.)
GAGCTCAGATTTATAGCTAATTGTAGGTGATATACCCGTCCGGAGTCACCTAGTGCAG	9550 fluorescence intensity (a.u.)
AACCCCGATTGAAAACAAACAAACAAACATGACATCGGCTCGGAGTCACCTAGTGCAG	16100 fluorescence intensity (a.u.)
TTTGATAGGATTTCTTATGTATTTATCAAAGTTTGGTGAACGGAGTCACCTAGTGCAG	22400 fluorescence intensity (a.u.)
CTTTTACTACTGATGATGAATTTACAGTGACTTCTTGTCGCGGAGTCACCTAGTGCAG	3400 fluorescence intensity (a.u.)
CCTCCTCATCATGGCTTAATTAATTAATACTCCTAGCTGCCGGAGTCACCTAGTGCAG	29000 fluorescence intensity (a.u.)
TTTGATTGGTTGCAAGAATGGGATTAAAAGAATATTTTAGCGGAGTCACCTAGTGCAG	37200 fluorescence intensity (a.u.)
TTTTACTTTTGATTGTAACGCGTTTTGGTTTAATTAGTACCGGAGTCACCTAGTGCAG	8160 fluorescence intensity (a.u.)
TCAAGATTACACTATGTAAATTATAATTTGTCTCCCCTTTCGGAGTCACCTAGTGCAG	17200 fluorescence intensity (a.u.)
TGTGAATGTTGTGATTGAGGTGGTATCAGTATCATATCCGCGGAGTCACCTAGTGCAG	27000 fluorescence intensity (a.u.)
TTCGGCCGAACGGCAACATCGTCGGCTCACACACGCATCGCGGAGTCACCTAGTGCAG	35300 fluorescence intensity (a.u.)
ATTAATTTATTATATCAATTTGTCTTGAAATTTTATCATACGGAGTCACCTAGTGCAG	19700 fluorescence intensity (a.u.)
TGTTAATGATATGTGTTTAGATTCATTAACATCTGTATGTCGGAGTCACCTAGTGCAG	12700 fluorescence intensity (a.u.)

Sequence	binding signal
ACTAAATTTATCACATCACCAAAAGTTCTGGTGAACATCACGGAGTCACCTAGTGCAG	26100 fluorescence intensity (a.u.)
GGTCCAATGATATGGTCAAATTGGTAGTTAGCTTTCAAACCGGAGTCACCTAGTGCAG	8860 fluorescence intensity (a.u.)
AATGGTAAATTATTAAGCGCAAACTTAAGAGAGGTATTTGCGGAGTCACCTAGTGCAG	3960 fluorescence intensity (a.u.)
ACAATATATAATTACAATGTAGTTAAACTACAGTTATATCCGGAGTCACCTAGTGCAG	4350 fluorescence intensity (a.u.)
CTTTCAGTGATAGACGACGTACTCATCGACAACGAGACATCGGAGTCACCTAGTGCAG	10300 fluorescence intensity (a.u.)
AACTAGAATTGAATGTGTGATTCTCTGTATAGAATAGATGCGGAGTCACCTAGTGCAG	5800 fluorescence intensity (a.u.)
AATGATTTTGGTAGCTTTGGGATATATCATGTCATAAGGACGGAGTCACCTAGTGCAG	7360 fluorescence intensity (a.u.)
CAAGATTTGATATGATTATATTATGATAAAATACATGTATCGGAGTCACCTAGTGCAG	23400 fluorescence intensity (a.u.)
CCCTGATAAACTATTAACTTGCACTGATTTTATTAGTCGGCGGAGTCACCTAGTGCAG	26100 fluorescence intensity (a.u.)
ATTGATAAATTGCTAAGCCAATGAAGATAAAACTATGTATCGGAGTCACCTAGTGCAG	16400 fluorescence intensity (a.u.)
ATATTGATGTTAATGAATCTAGACATATATATCTATTTAGCGGAGTCACCTAGTGCAG	7130 fluorescence intensity (a.u.)
TAAAATAATTTGGTTATATTTGTAATCTCTATATACCCAACGGAGTCACCTAGTGCAG	6210 fluorescence intensity (a.u.)
AGTTGATTGGCACTGGCACACGGCATGTGTTCGCTCGAACCGGAGTCACCTAGTGCAG	42100 fluorescence intensity (a.u.)
ATGTTAACTGAAAGTTGAGCTGCAAAACATAATAATTTGCCGGAGTCACCTAGTGCAG	6980 fluorescence intensity (a.u.)
TCGCTAATAAATCATATGATGTCATGGGCCCGAGACATCTCGGAGTCACCTAGTGCAG	3380 fluorescence intensity (a.u.)
TAGTTAATTGTTGTTGCCACACTCAAGCTAGCTAGGTGTACGGAGTCACCTAGTGCAG	28700 fluorescence intensity (a.u.)
TGAAAATTGCACTTGATTTCCTCAATAATTGCAGATGCTACGGAGTCACCTAGTGCAG	41800 fluorescence intensity (a.u.)
GTCTGATCTAATCTAAACGGGCCTATAAAATGACGGCAGCCGGAGTCACCTAGTGCAG	6020 fluorescence intensity (a.u.)
TAATTAAATACAAACTAATTGACCTCACGGGATTAAATTCCGGAGTCACCTAGTGCAG	11900 fluorescence intensity (a.u.)
CATTAGATTAGTTTGCTATACTTGCTACTACTAGTACAATCGGAGTCACCTAGTGCAG	22000 fluorescence intensity (a.u.)
TGTCATGTTGCTAATTTAAATTCTGCGCACGATAGCCTCTCGGAGTCACCTAGTGCAG	3430 fluorescence intensity (a.u.)
